The full ranking holds about 33,000 sequences; the median of “E-score (-0.5 to 0.5)” is about -0.041, and the highest 2% start at about 0.37. The list shows a part of the results.
biological target: T1, Ecm22 (UniProt Q05958); assay: PBM E-score (8-mer binding enrichment) (E-score (-0.5 to 0.5)); higher = stronger / more preferred TF binding; most listed sequences are background and not binding sites; conditions: protein concentration: 200 nM; construct: GST-full length
T1 sequence: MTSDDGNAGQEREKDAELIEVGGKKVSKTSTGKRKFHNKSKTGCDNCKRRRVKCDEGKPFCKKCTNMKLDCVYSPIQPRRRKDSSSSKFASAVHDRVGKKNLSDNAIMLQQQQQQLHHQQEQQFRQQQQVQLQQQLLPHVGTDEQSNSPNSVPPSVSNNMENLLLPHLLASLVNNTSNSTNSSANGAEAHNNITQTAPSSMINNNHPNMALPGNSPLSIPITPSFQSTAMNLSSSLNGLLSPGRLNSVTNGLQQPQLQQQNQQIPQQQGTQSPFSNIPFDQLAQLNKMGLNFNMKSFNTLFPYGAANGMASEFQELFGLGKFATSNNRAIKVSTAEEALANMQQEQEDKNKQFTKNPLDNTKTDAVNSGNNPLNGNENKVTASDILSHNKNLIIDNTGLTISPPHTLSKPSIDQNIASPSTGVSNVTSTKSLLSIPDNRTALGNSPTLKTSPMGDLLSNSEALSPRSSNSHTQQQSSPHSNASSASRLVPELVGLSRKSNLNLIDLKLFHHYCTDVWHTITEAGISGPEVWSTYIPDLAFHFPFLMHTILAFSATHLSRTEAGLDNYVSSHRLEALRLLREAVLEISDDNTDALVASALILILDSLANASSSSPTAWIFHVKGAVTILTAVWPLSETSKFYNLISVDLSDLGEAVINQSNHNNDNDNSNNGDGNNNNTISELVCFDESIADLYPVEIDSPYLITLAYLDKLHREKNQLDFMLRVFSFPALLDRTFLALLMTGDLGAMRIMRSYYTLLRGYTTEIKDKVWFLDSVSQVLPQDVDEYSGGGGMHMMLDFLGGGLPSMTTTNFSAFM
Summary of the method: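 Each ungapped eight-base word and its reverse complement, pooled, received an E-score from the Universal PBM Analysis Suite. Underlying scans, normalised with masliner, recorded fluorescent anti-GST bound to GST-tagged yeast transcription factors. These were applied at about 100-200 nM to universal all-10-mer Agilent arrays double-stranded by primer extension.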

Row | Sequence | PBM E-score
1 | GATACTCA | -0.072
2 | ACAACACG | 0.131
3 | TTAGGCAA | -0.305
4 | CCATACGG | 0.345
5 | AATTACAA | -0.213
6 | AGATTTAT | 0.0306
7 | GGGGACGA | -0.125
8 | AACATAAA | -0.034
9 | CATCCAGA | -0.106
10 | ACTAGCAA | -0.0444
11 | CGTGGTGA | -0.196
12 | CCACACAA | -0.189
13 | CGGCGCGA | 0.133
14 | ACCCGATA | 0.259
15 | AGCCCACT | -0.118
16 | ACGCGGAC | -0.0224
17 | CTTGTAGC | -0.0823
18 | CCACGCCA | -0.204
19 | GCTGGTAC | -0.00169
20 | AGCCCCCT | -0.207
21 | GTCGTAGA | 0.4
22 | CCGGGTCG | 0.163
23 | ACGGTGCT | 0.109
24 | CGGCAAGA | -0.118
25 | GGCACTAA | -0.143

Row | Sequence | PBM E-score
26 | AGGATGAT | 0.0289
27 | ACCGGATG | 0.0481
28 | GGCATCCC | -0.315
29 | GGCTCAGA | -0.051
30 | CGACGCGA | 0.221
31 | GAGTGTTA | -0.126
32 | ACTTTGAT | -0.154
33 | AAAGTACA | 0.154
34 | ACATCCAC | -0.0236
35 | AGCCGTCC | -0.181
36 | AATGGTAC | 0.167
37 | AAAAATAG | -0.197
38 | GGTGCTGA | -0.13
39 | AGCTCCTA | -0.316
40 | CTATGCGC | 0.00705
41 | GCTTTTCC | 0.0155
42 | CAACCTTC | -0.186
43 | AGTAAGCA | -0.0538
44 | TCTGATCA | -0.194
45 | GAGGGCTA | -0.271
46 | GAGCATCA | -0.0867
47 | TCTCGCAA | 0.227
48 | ACTGTAAG | 0.133
49 | ACTTAAAT | -0.142
50 | TATAGTGA | -0.115

Row | Sequence | PBM E-score
51 | CGCCCACC | -0.18
52 | TCGTAGCA | 0.419
53 | GTGTTAAC | -0.094
54 | GGAGAGAC | -0.154
55 | AGCTTGTA | 0.0441
56 | ATAAAGAT | 0.0382
57 | ACTTAGAC | 0.0216
58 | GCCCTACA | -0.133
59 | ATTCCGAA | 0.022
60 | CCCTATCG | -0.138
61 | ATGGGAAC | 0.0419
62 | ACTTAGTC | -0.115
63 | GCATCTAA | 0.13
64 | AGAAAGGC | -0.119
65 | CGTATAGA | 0.458
66 | TCTAGCAA | 0.0363
67 | CGTCCTTC | -0.0408
68 | CACGGAAC | 0.0912
69 | GGACACAA | -0.00344
70 | CAGTCGCG | 0.086
71 | CATCATAG | -0.12
72 | ATAGCGGG | -0.0534
73 | CCTACCAC | -0.243
74 | ACGCAGTA | 0.16
75 | CTCTGCTA | -0.305

Row | Sequence | PBM E-score
76 | CCGTGAGA | -0.336
77 | GGATGTCA | -0.0106
78 | ATCACTGG | -0.0635
79 | CACGTTTC | -0.0133
80 | ATGCTCAA | -0.27
81 | ATCTTGCG | -0.0369
82 | ACTTTCAA | -0.174
83 | GTAACCAA | 0.0317
84 | GATAAGAC | -0.115
85 | ACACCGGA | -0.114
86 | GCCTGCGC | -0.272
87 | GACGTAAA | 0.154
88 | GCGCGGAA | -0.0299
89 | CAGGTGTA | -4e-05
90 | GCTGCGTA | 0.197
91 | GAGACGCA | -0.00019
92 | GTCCAATA | -0.086
93 | GAAGGGCC | -0.0684
94 | CAGTGAAC | -0.00726
95 | CTATAAGC | -0.0428
96 | AAGAAAAT | 0.173
97 | CGCAATCA | -0.0988
98 | CAGGTACG | 0.423
99 | ATGGCTAC | 0.146
100 | CAAGCGTC | -0.0674

Row | Sequence | PBM E-score
101 | AGGCGGGA | -0.209
102 | CATGCGGG | -0.05
103 | GAGACATC | 0.0757
104 | GACTACTA | -0.0404
105 | CCCGCATC | -0.00884
106 | GATCCGCA | 0.0238
107 | CGAACGAC | 0.389
108 | CCTGACAA | -0.117
109 | TACGGCAA | 0.315
110 | AGGCTGTC | 0.014
111 | CCAGGGTC | -0.14
112 | GAATGGTC | -0.116
113 | ACAATGGT | -0.287
114 | CCATAGTC | -0.299
115 | AAGCGATT | 0.155
116 | AACCCCAA | -0.13
117 | ATTCCAGG | -0.277
118 | ACCTGTAC | 0.17
119 | GATAAGTA | 0.0422
120 | AGACCTCG | 0.208
121 | CCCGTCCA | -0.0657
122 | CGAGATCA | 0.264
123 | CCACTCCA | -0.082
124 | CATTGCCA | -0.0283
125 | AGCCGACG | 0.0118

Row | Sequence | PBM E-score
126 | TCAAGCAA | -0.218
127 | CCGCGTGA | 0.037
128 | CTTCGGGA | 0.0637
129 | AGTACCTG | -0.106
130 | CCATTCTA | -0.198
131 | ACTTCGTG | 0.116
132 | TATCGTCA | -0.0196
133 | CGAAAATC | 0.162
134 | AGCTACAT | -0.148
135 | ACGCGGCT | 0.0937
136 | GAGCGCCA | -0.0916
137 | CGTTTAGA | 0.446
138 | CACGTTGG | -0.226
139 | GTAGCAAC | 0.0848
140 | CACCGCAG | -0.207
141 | ACTCCATA | -0.195
142 | CGTCGACC | -0.0446
143 | ATAGCCGC | -0.143
144 | ACGGCGCG | 0.318
145 | AACAGGCA | -0.129
146 | GTCACCCA | -0.297
147 | CTTACACA | -0.278
148 | GTCCACAC | 0.00156
149 | ACTGAGTA | -0.0231
150 | GATATATC | -0.116

Row | Sequence | PBM E-score
151 | CTGGAATA | -0.127
152 | AAGACCAG | -0.318
153 | AACTACGC | 0.102
154 | ATTCTTGC | -0.0441
155 | GCTCGGAC | 0.161
156 | CGTCTGCC | -0.06
157 | GCCGGAAC | 0.0721
158 | ATAATGCA | 0.0774
159 | AATCCCGA | 0.136
160 | ATAGTTCA | 0.107
161 | ACATTTCA | -0.103
162 | AGTTGCAT | -0.0617
163 | ACACCCGG | -0.00779
164 | ACAGCAAA | -0.038
165 | CGTGGAAA | 0.0923
166 | AATATGGG | -0.124
167 | AGAGCATA | -0.108
168 | CGCAGCAC | -0.108
169 | ACATACAT | 0.114
170 | CTTGCTCA | -0.17
171 | AATACCTA | -0.0655
172 | TCAAGAAA | 0.0221

Source: the supplement of paper PMC3334620
